# Source: article PMC4336329 (PLoS ONE, 2015)
# The campaign covered roughly 310,000 compounds. About 14,000 (4.5%) showed an effect of 50% or more. Effects have a minus sign here. Some of the results follow.
# Target: human ether-à-go-go-related gene (hERG) potassium channel (human, UniProt Q12809)
# Test: primary screen, population patch clamp on CHO cells stably expressing hERG
# 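Also: peak tail current of the secondary pulse compared with the same well before compound.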
# Chain of human ether-à-go-go-related gene (hERG) potassium channel (Q12809 whole entry, looked up): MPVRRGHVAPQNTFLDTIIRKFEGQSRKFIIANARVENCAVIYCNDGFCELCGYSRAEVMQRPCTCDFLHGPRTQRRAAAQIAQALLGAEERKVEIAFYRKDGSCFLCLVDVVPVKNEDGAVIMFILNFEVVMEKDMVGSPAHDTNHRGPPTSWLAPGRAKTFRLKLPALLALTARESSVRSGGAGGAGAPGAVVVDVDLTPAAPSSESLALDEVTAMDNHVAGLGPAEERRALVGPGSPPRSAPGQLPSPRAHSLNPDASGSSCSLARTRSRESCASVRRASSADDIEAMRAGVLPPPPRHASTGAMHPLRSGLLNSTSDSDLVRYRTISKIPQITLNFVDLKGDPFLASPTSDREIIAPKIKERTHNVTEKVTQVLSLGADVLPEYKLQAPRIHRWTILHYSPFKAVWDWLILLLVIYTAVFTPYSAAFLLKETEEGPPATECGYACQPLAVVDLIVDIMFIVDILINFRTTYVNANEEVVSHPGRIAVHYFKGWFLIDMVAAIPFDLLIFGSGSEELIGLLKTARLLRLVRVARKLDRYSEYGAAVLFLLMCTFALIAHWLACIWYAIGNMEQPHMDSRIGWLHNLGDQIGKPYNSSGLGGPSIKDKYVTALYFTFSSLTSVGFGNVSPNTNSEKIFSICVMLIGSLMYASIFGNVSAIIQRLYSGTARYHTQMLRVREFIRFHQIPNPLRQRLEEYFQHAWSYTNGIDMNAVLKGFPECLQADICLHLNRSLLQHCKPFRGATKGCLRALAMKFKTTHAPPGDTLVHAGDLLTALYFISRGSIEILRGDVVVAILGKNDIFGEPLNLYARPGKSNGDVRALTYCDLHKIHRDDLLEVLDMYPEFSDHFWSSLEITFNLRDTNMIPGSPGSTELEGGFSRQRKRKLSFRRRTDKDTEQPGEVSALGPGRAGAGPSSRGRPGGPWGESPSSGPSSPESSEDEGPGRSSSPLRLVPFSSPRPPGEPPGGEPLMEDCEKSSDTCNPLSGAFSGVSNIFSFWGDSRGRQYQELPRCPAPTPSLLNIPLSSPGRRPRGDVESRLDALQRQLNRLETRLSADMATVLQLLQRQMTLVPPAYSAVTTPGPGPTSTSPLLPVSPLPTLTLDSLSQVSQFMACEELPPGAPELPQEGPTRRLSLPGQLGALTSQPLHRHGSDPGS
row,Structure (SMILES),"hERG current change (%, negative = inhibition) at 10uM"
1,c1csc(-c2ccnc3ncnn23)c1,4.46%
2,CCc1cc(S(=O)(=O)N2CCN(C(=O)c3ccco3)CC2)ccc1OC,1.76%
3,C=CCNC(=O)c1scc2c1CCCC2,12.4%
4,O=C(NCc1ccc(OC(F)(F)F)cc1)c1cc(-c2ccccc2)nn1CC1CC(c2cccnc2)=NO1 (stereo not shown),-57.4%
5,COc1cc2c(cc1OC)C(C)N(C(=O)[C@@H](NC(=O)c1ccccc1)C(C)C)CC2 (stereo partly shown),11%
6,COc1cccc(C(=O)c2c(C)c(CCC#N)n3ccccc23)c1,-10.6%
7,CCN1C(=O)c2cccc3c(S(=O)(=O)N(C(=O)c4ccncc4)c4ccc(OC)cc4)ccc1c23,-7.51%
8,Cc1ccc2cc(C#N)c(N3CCCN(S(=O)(=O)c4ccccc4)CC3)nc2c1,-10.3%
9,COc1ccc(Nc2cc(C(=O)NCCCN3CCOCC3)c3ccccc3n2)cc1,-26.5%
10,O=c1[nH]c(C2CCN(S(=O)(=O)c3ccc(C(F)(F)F)cc3)CC2)nc2c1nnn2Cc1ccc(F)cc1,-18%
11,COc1cccc(CNC2CN3CCC2CC3)c1OC.Cl (stereo not shown),12.2%
12,CC1Cc2ccccc2N1C(=O)CSc1nc2cc3c(cc2cc1C#N)OCO3 (stereo not shown),4.54%
13,CC(C)(C)c1cc(CCC(=O)NN)cc(C(C)(C)C)c1O,-9.33%
14,CC(=O)Nc1ccc(S(=O)(=O)Oc2ccc(C(=S)N3CCC(O)CC3)cc2)cc1,-11.7%
15,CC(=O)c1ccc(NC(=S)NN2C(C)CCCC2C)cc1 (stereo not shown),-31.7%
16,Cc1cc(C)c(C)c(S(=O)(=O)N2CCC(C(=O)N3CC(C)CC(C)C3)CC2)c1C (stereo not shown),-1.87%
17,CCOC(=O)c1sc(NC(=O)Nc2ccc(Cl)cc2)nc1C,13.3%
18,O=C(CO/N=C/c1ccccc1)N1c2ccccc2Oc2ccccc21,-0.399%
19,CN(C(=O)COC(=O)c1ccccc1SCC(=O)N1CCCC1)C1(C#N)CCCCC1,-3.08%
20,C=CCNC(=O)/C(=C/c1ccc(Br)cc1)NC(=O)c1ccccc1OC,-45.9%
21,CC(C)=CCc1c(O)c(CC=C(C)C)c2c(c1O)C(=O)CC(c1ccc(O)cc1)O2 (stereo not shown),8.92%
22,Cc1ccccc1-n1cnnc1SCC(=O)Nc1cccnc1Cl,4.06%
23,Cn1cccc1/C=C1\SC(=Nc2ccc(O)cc2)NC1=O,-13.4%
24,Cl.OC(COc1ccc2c(c1)OCO2)CN1CCc2ccccc2C1 (stereo not shown),-28.5%
25,CCSc1ccccc1C(=O)NCc1ccc(S(N)(=O)=O)cc1,-0.695%
26,CC(C)NC(=O)NNC(=O)Cn1nnc(-c2cccc(Cl)c2Cl)n1,8.05%
27,COc1ccc(NC(=O)CC2(CC(=O)N3CCOCC3)CCCC2)cc1Cl,-6.3%
28,CC(C)c1ccccc1OCC(=O)N1CCCN(C)CC1,6.46%

row,Structure (SMILES),"hERG current change (%, negative = inhibition) at 10uM"
1,Cc1nnsc1C(=O)NCc1c(F)cccc1Cl,14.7%
2,CCOC(=O)C1CCN(C(=O)Cc2c(C(=O)O)n(C)c3ccccc23)CC1,0.76%
3,O=C(Cc1n[nH]c(=O)c2ccccc12)N1CCN(c2ccc(F)cc2)CC1,-30.4%
4,COC(=O)C1=C(c2ccc3ccccc3c2)C[C@@H]2CC[C@H]1N2C(=O)N1CCC(O)CC1,2.99%
5,O=C(O)CCCN1C(=O)C2C3CCC(O3)C2C1=O (stereo not shown),10.9%
6,Cc1ccc(/C=N/N2C(=O)c3ccccc3NC2c2ccc(C)cc2)cc1 (stereo not shown),15.3%
7,Nc1ccc2c(c1)-c1ccccc1S(=O)(=O)N2,11.1%
8,CCC(=O)NC(=S)Nc1ccc(NC(=S)NC(=O)c2ccc(C)cc2)cc1,12.9%
9,COc1ccccc1/C=C1\SC(=S)N(CCC(=O)NCCc2ccc(O)cc2)C1=O,15.1%
10,CCOc1cc(/C=N\Nc2ncc(F)c(N3CCOCC3)n2)ccc1Oc1nc(Cl)ncc1F,-51.8%
11,CCOC(=O)c1ccc(NC(=S)NCCCn2ccnc2)cc1,21.1%
12,O=C(C1CCC(CNc2c(N3CCCCC3)c(=O)c2=O)CC1)N1CCN(C2CCCCC2)CC1 (stereo not shown),5.73%
13,COc1cc2c(cc1OC)CN(C(=O)c1ccc(Br)o1)CC2,-12.9%
14,CC(Sc1ccccc1)C(=O)NNC(=O)c1ccncc1 (stereo not shown),17.1%
15,CCN1CCN(C(=O)c2ccc(Cn3c(=O)[nH]c4cc(OC)c(OC)cc4c3=O)cc2)CC1,6.64%
16,O=C(CCNC(=O)c1ccco1)Nc1ccc(SC(F)F)cc1,-52.7%
17,O=C(NCCc1ccc(Cl)cc1)C1CCN(C(=O)c2sccc2-n2cccc2)CC1,-32.9%
18,COc1cc(C(=O)OCCCc2cc3ccccc3c(=O)o2)cc(OC)c1OC,-13.7%
19,Cc1ccc(CNC(=O)CN2CCN(Cc3ccc(C)cc3)C2=O)cc1,-26.5%
20,Cc1cc2ccc(C)c(C)c2nc1SCC#N,6.95%
21,CCn1c(CNc2ccc(F)cc2)nnc1SCC(=O)Nc1ccccc1OC,-30.2%
22,Cc1ccc(NC(=O)COC(=O)Cc2cccs2)cc1S(=O)(=O)N1CCOCC1,-23.5%
23,COc1ccc(CC(=O)n2nc(-c3ccccc3)nc2NCc2ccco2)cc1,-19.7%
24,COc1ccc(-c2nc(CSCC(=O)NC3CCCC3)c(C)o2)cc1OC,-13.6%
25,O=[N+]([O-])c1cccc(-c2c[n+]3c(n2-c2ccccc2)SCC3)c1.[Br-],-42.3%
26,Cc1ccc(NC(=O)c2ccc(C)c(NC3=NC4CS(=O)(=O)CC4S3)c2)cc1C (stereo not shown),3.9%
27,Nc1nc(-c2cccs2)c(NC(=O)c2ccccc2)s1,6.33%
